# The other results are listed elsewhere or left out.
# Key:
# Assay in all cases: glycan array binding signal (z-score within array); higher = stronger binding
# Details in all cases: glycan notation: IUPAC condensed, linker removed
# [1] = target: Fuc(a1-2)[GalNAc(a1-3)]Gal(b1-3)GlcNAc(b1-6)GalNAc
# Method in brief: (§1)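 The Consortium for Functional Glycomics database supplied 3228 glycan arrays, of which those lacking an available protein sequence were dropped. The binding signal, a within-array Z-score, was averaged across arrays of the same protein sequence and across linkers. Negative scores can be read as non-binding.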
# [2] = target: Fuc(a1-2)[GalNAc(a1-3)]Gal(b1-4)Glc
# Method in brief: as §1
# [3] = target: Fuc(a1-2)[GalNAc(a1-3)]Gal(b1-4)GlcNAc
# Method in brief: as §1
# [4] = target: Fuc(a1-2)[GalNAc(a1-3)]Gal(b1-4)GlcNAc(b1-2)Man
# Method in brief: as §1
# [5] = target: Fuc(a1-2)[GalNAc(a1-3)]Gal(b1-4)GlcNAc(b1-2)Man(a1-3)[Fuc(a1-2)[GalNAc(a1-3)]Gal(b1-4)GlcNAc(b1-2)Man(a1-6)]Man(b1-4)GlcNAc(b1-4)GlcNAc
# Method in brief: as §1
# [6] = target: Fuc(a1-2)[GalNAc(a1-3)]Gal(b1-4)GlcNAc(b1-2)Man(a1-3)[Fuc(a1-2)[GalNAc(a1-3)]Gal(b1-4)GlcNAc(b1-2)Man(a1-6)]Man(b1-4)GlcNAc(b1-4)[Fuc(a1-6)]GlcNAc
# Method in brief: as §1
# [7] = target: Fuc(a1-2)[GalNAc(a1-3)]Gal(b1-4)GlcNAc(b1-3)Gal(b1-4)GlcNAc
# Method in brief: as §1
# [8] = target: Fuc(a1-2)[GalNAc(a1-3)]Gal(b1-4)GlcNAc(b1-3)Gal(b1-4)GlcNAc(b1-3)Gal(b1-4)GlcNAc
# Method in brief: as §1
# [9] = target: Fuc(a1-2)[GalNAc(a1-3)]Gal(b1-4)GlcNAc(b1-3)GalNAc
# Method in brief: as §1
# [10] = target: Fuc(a1-2)[GalNAc(a1-3)]Gal(b1-4)GlcNAc(b1-3)[Fuc(a1-2)[GalNAc(a1-3)]Gal(b1-4)GlcNAc(b1-6)]GalNAc
# Method in brief: as §1
# [11] = target: Fuc(a1-2)[GalNAc(a1-3)]Gal(b1-4)GlcNAc(b1-6)GalNAc
# Method in brief: as §1
# [12] = target: Fuc(a1-2)[GalNAc(a1-3)]Gal(b1-4)[Fuc(a1-3)]GlcNAc
# Method in brief: as §1
# [13] = target: Fuc(a1-2)[GalNAc(a1-3)]Gal(b1-4)[Fuc(a1-3)]GlcNAc(b1-3)GalNAc
# Method in brief: as §1
# [14] = target: Fuc(a1-2)[GalNAc(a1-4)]Gal(b1-4)GlcNAc
# Method in brief: as §1
# [15] = target: Fuc(a1-2)[GalNAc(b1-3)]Gal
# Method in brief: as §1
# Fuc(a1-3)GlcNAc = target: Fuc(a1-3)GlcNAc
# Method in brief: as §1
# [16] = target: Fuc(a1-3)[Gal(b1-4)]Glc6S
# Method in brief: as §1
# [17] = target: Fuc(a1-3)[Gal(b1-4)]GlcNAc
# Method in brief: as §1
# [18] = target: Fuc(a1-3)[Gal(b1-4)]GlcNAc(b1-2)Man
# Method in brief: as §1
# [19] = target: Fuc(a1-3)[Gal(b1-4)]GlcNAc(b1-2)Man(a1-3)[Fuc(a1-3)[Gal(b1-4)]GlcNAc(b1-2)Man(a1-6)]Man(b1-4)GlcNAc(b1-4)GlcNAc
# Method in brief: as §1
# [20] = target: Fuc(a1-3)[Gal(b1-4)]GlcNAc(b1-2)Man(a1-3)[Fuc(a1-3)[Gal(b1-4)]GlcNAc(b1-2)Man(a1-6)]Man(b1-4)GlcNAc(b1-4)[Fuc(a1-6)]GlcNAc
# Method in brief: as §1
# [21] = target: Fuc(a1-3)[Gal(b1-4)]GlcNAc(b1-3)Gal(b1-3)[Fuc(a1-4)]GlcNAc
# Method in brief: as §1
# [22] = target: Fuc(a1-3)[Gal(b1-4)]GlcNAc(b1-3)GalNAc
# Method in brief: as §1
# [23] = target: Fuc(a1-3)[Gal(b1-4)]GlcNAc(b1-4)Gal(b1-4)[Fuc(a1-3)]GlcNAc
# Method in brief: as §1
# [24] = target: Fuc(a1-3)[Gal(b1-4)]GlcNAc(b1-4)Gal(b1-4)[Fuc(a1-3)]GlcNAc(b1-4)Gal(b1-4)[Fuc(a1-3)]GlcNAc
# Method in brief: as §1
# [25] = target: Fuc(a1-3)[Gal(b1-4)]GlcNAc(b1-6)GalNAc
# Method in brief: as §1
# [26] = target: Fuc(a1-3)[Gal(b1-4)]GlcNAc(b1-6)[Gal(b1-3)GlcNAc(b1-3)]Gal(b1-4)Glc
# Method in brief: as §1
# [27] = target: Fuc(a1-3)[Gal(b1-4)]GlcNAc6S
# Method in brief: as §1
# [28] = target: Fuc(a1-3)[Gal3S(b1-4)]Glc
# Method in brief: as §1
# [29] = target: Fuc(a1-3)[Gal3S(b1-4)]GlcNAc
# Method in brief: as §1
# [30] = target: Fuc(a1-3)[Gal3S(b1-4)]GlcNAc6S
# Method in brief: as §1
# [31] = target: Fuc(a1-3)[GalNAc(b1-4)]GlcNAc
# Method in brief: as §1
# [32] = target: Fuc(a1-3)[GalNAc(b1-4)]GlcNAc6S
# Method in brief: as §1
# Fuc(a1-4)GlcNAc = target: Fuc(a1-4)GlcNAc
# Method in brief: as §1
# Fuc(b1-3)GlcNAc = target: Fuc(b1-3)GlcNAc
# Method in brief: as §1
# Gal(a1-2)Gal = target: Gal(a1-2)Gal
# Method in brief: as §1
# Gal(a1-3)Gal = target: Gal(a1-3)Gal
# Method in brief: as §1
binder,measurement,setting,value
Microvirin-2 (Microcystis aeruginosa) (protein) MPNFSHTCSSINYDPDSTILSAECQARDGEWLPTELRLSDHIGNIDGELQFGDQNFQETCQDCHLEFGDGEQSVWLVCTCQTMDGEWKSTQILLDSQIDNNDSQLEIGGSMPNFSHTCSSINYDPDSTILSAECQARDGEWLPTELRLSDHIGNIDGELQFGDQNFQETCQDCHLEFGDGEQSVWLVCTCQTMDGEWKSTQILLDSQIDNNDSQLEIG,glycan array binding signal (z-score),[1],-0.14
same,glycan array binding signal (z-score),[2],-0.143
same,glycan array binding signal (z-score),[3],-0.136
same,glycan array binding signal (z-score),[4],-0.138
same,glycan array binding signal (z-score),[5],-0.121
same,glycan array binding signal (z-score),[6],0.109
same,glycan array binding signal (z-score),[7],-0.127
same,glycan array binding signal (z-score),[8],-0.086
same,glycan array binding signal (z-score),[9],-0.127
same,glycan array binding signal (z-score),[10],-0.132
same,glycan array binding signal (z-score),[11],-0.134
same,glycan array binding signal (z-score),[12],-0.113
same,glycan array binding signal (z-score),[13],-0.115
same,glycan array binding signal (z-score),[14],-0.139
same,glycan array binding signal (z-score),[15],-0.145
same,glycan array binding signal (z-score),Fuc(a1-3)GlcNAc,-0.129
same,glycan array binding signal (z-score),[16],-0.123
same,glycan array binding signal (z-score),[17],-0.141
same,glycan array binding signal (z-score),[18],-0.134
same,glycan array binding signal (z-score),[19],-0.144
same,glycan array binding signal (z-score),[20],-0.126
same,glycan array binding signal (z-score),[21],-0.126
same,glycan array binding signal (z-score),[22],-0.119
same,glycan array binding signal (z-score),[23],-0.101
same,glycan array binding signal (z-score),[24],-0.14
same,glycan array binding signal (z-score),[25],-0.119
same,glycan array binding signal (z-score),[26],-0.143
same,glycan array binding signal (z-score),[27],-0.126
same,glycan array binding signal (z-score),[28],-0.129
same,glycan array binding signal (z-score),[29],-0.133
same,glycan array binding signal (z-score),[30],-0.131
same,glycan array binding signal (z-score),[31],-0.098
same,glycan array binding signal (z-score),[32],-0.14
same,glycan array binding signal (z-score),Fuc(a1-4)GlcNAc,-0.139
same,glycan array binding signal (z-score),Fuc(b1-3)GlcNAc,-0.137
same,glycan array binding signal (z-score),Gal(a1-2)Gal,-0.123
same,glycan array binding signal (z-score),Gal(a1-3)Gal,-0.14
